PubChem BioAssay AID1508623 (National Center for Advancing Translational Sciences (NCATS), 2021)
Among all 48,000 compounds or so, about 450 (0.94%) were called active. About 19% were inconclusive and are not listed. Calls follow the shape of the dose curve; as a rule, active = well fitted inhibition curve with a large enough effect; inconclusive = small, poorly fitted or top-dose-only effect; inactive = no such curve, though single readings can be large or run the other way. The list shows a part of the results.

test: Primary qHTS for Identification of Small Molecule Inhibitors of Huntingtin Promoter Activity; details: HEK293 HTT promoter firefly luciferase reporter (activity 0% = vehicle and -100% = no light), 24 h; series mostly up to 57.5 µM; activity change, negative = inhibition: at the top concentration; also: nearly all actives have a fitted effect of over 50% in size
Method in brief: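 Luminescence was read after Dual-Glo reagent and a 10 min room-temperature incubation. Values were normalized to vehicle (0% activity) and zero RLU (-100% activity). Reporter HEK293 cells had been exposed to compounds (up to 57.5 uM final) for 24 h.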

Activity change, negative = inhibition, inactive:
COc1ccc(C2C(C(N)=O)=C(C)Nc3nc(CCCO)nn32)c(OC)c1 (stereo unspecified) -5.01%
COc1ccc(CCNC(=O)c2cnc3ccc(C)cn3c2=O)cc1 -2.15%
CCCS(=O)(=O)c1c(S(=O)(=O)CCC)c2cc(CC)ccn2c1C(=O)c1ccc(OC)cc1 -17.6%
COc1cccc(Cn2nnc(C(=O)Nc3cc(C)ccc3C)c2N)c1 -25.9%
CCOc1ccc(NC(=O)N2CCC(C(N)=O)(N3CCCCC3)CC2)cc1 -7.76%
O=C(NC1CC(=O)N(c2cccc(F)c2)C1)c1ccc(S(=O)(=O)N2CCCC2)cc1 (stereo unspecified) -18%
O=C(Cn1c(=O)n(Cc2ccccc2)c(=O)c2sc3ccccc3c21)NCc1ccccc1Cl -15.3%
O=C(CCc1nc(-c2cccs2)no1)Nc1ccccc1[N+](=O)[O-] 0.523%
Cc1ccn2c(=O)c(C(=O)NCCc3ccccc3)c(O)nc2c1 0.417%
Cc1ccc2nc(NC(=O)CSc3nccn3Cc3ccc(Cl)cc3)sc2c1 -26.6%
O=C(Nc1cccc(Cl)c1)N1CCSc2ccccc21 -4.81%
CCN(CC)c1cc(C)c2cc(NC(=O)c3cccc(F)c3)ccc2n1 -3.63%
CCOC(=O)c1cnc2c(ccc3ccccc32)c1Nc1ccccc1OCC 0.116%
COCCCNC(=O)CS(=O)Cc1nc(-c2cccc(C)c2)oc1C (stereo unspecified) 2.54%
CC(NC(=O)CCCC1=NS(=O)(=O)c2ccccc2N1)c1ccccc1 (stereo unspecified) -1.52%
CCCn1cc(S(=O)(=O)c2ccccc2)c(=O)c2cc(F)c(N3CCCCC3)cc21 -9.22%
Cc1ccc(NC(=O)C2CCN(c3nc4ccccc4nc3C(F)(F)F)CC2)cc1F -9%
CCC(C)n1c(=N)c(C(=O)NCc2ccccc2)cc2c(=O)n3cc(C)ccc3nc21 (stereo unspecified) -2.44%
COc1ccc(C(=O)Nc2nnc(S(=O)(=O)N3CCCCCC3)s2)cc1OC -18.3%
Cc1ccc(CNC(=O)CCc2c(C)nc3c(c(C)nn3-c3ccccc3)c2C)cc1 1.17%
CCN(CC)C(=O)/C(C#N)=C/c1cc(O)c(O)c([N+](=O)[O-])c1 -3.05%
COc1ccc(C(=O)c2oc3ccccc3c2NC(=O)COc2ccccc2)cc1 4.93%
COc1ccc(CCNC(=O)c2sc3nc4n(c(=O)c3c2C)CCCC4)cc1OC 19.6%
CCc1cccc(C)c1NC(=O)CC1Oc2ccc(C)cc2NC1=O (stereo unspecified) -6.62%
O=C(COc1ccc(Cl)cc1)OCc1cc(=O)n2nc(-c3cccs3)sc2n1 -1.8%
CC(C)n1c(=N)c(C(=O)NCc2cccnc2)cc2c(=O)n3ccccc3nc21 -12.8%
CNC(=O)C1CCC(Cn2c(=O)c3sccc3n(CC(=O)NCc3cccc(OC)c3)c2=O)CC1 (stereo unspecified) -14.3%
Cc1cc(C)cc(Nc2cc(C)nc3nncn23)c1 10.5%
Cc1cccc(-c2nc3scc(CCNC(=O)c4ccc(Br)o4)n3n2)c1 -18.2%
CCC(CC)C(=O)Nc1ccc(-c2cn3cccnc3n2)cc1 38.7%
Nc1nc2c(c(=O)[nH]1)N(C=O)[C@H](CNc1ccc(C(=O)N[C@@H](CCC(=O)O)C(=O)O)cc1)CN2 6.62%
COc1ccc(CNC(=O)CN2C(=O)COc3ccc(S(=O)(=O)NC4CCCC4)cc32)cc1 -7.79%
COc1ccc(/C=C\c2onc(C)c2S(=O)(=O)N2CCC(C(=O)Nc3cccc(Cl)c3)CC2)cc1 -20.4%
Cc1ccc(Nc2nnc(-c3cc4c(ccc5ccccc54)oc3=O)s2)cc1 -3.69%
COc1cccc(C(=O)N2CCc3c([nH]c4ccccc34)C2c2ccc(SC)cc2)c1 (stereo unspecified) -21.2%
COc1cccc(CNC(=O)CCCN2C(=O)CCn3nc(-c4cccn4C)cc32)c1 18%
CCOC(=O)c1cccc(NC(=O)Cn2c(=O)nc(-c3ccccc3F)c3cc(Cl)ccc32)c1 -20.4%
CCn1c(=O)c2cc(C(=O)N(CC(C)C)CC(C)C)sc2c2ccccc21 -11%
CCOc1ccc(CCNC(=O)c2csc3c2CCCCC3)cc1 -12.3%
CCN(C(=O)CSc1nc2ccccc2n1CC(=O)NCc1ccc(OC)cc1)c1ccccc1 -15.7%
Cc1ccc2nc(CSc3nnc(NC(=O)c4cccc(Br)c4)s3)cc(=O)n2c1 31.1%
COc1ccc(-c2c(C)nn3c(N4CCN(c5ccccc5)CC4)cc(C)nc23)cc1OC -5.05%
COc1ccc(NC(=O)CC2C(=O)N(c3ccc(F)cc3)C(=O)N2Cc2ccc3c(c2)OCO3)cc1 (stereo unspecified) -21.3%
C[C@@H](O)[C@H]1C(=O)N2C(C(=O)O)=C(S[C@@H]3CN[C@H](C(=O)N(C)C)C3)[C@H](C)[C@H]12
CCCn1c(=N)c(C(=O)NC2CCCC2)cc2c(=O)n3cccc(C)c3nc21 -6.59%
COc1ccc(/C=C(/C#N)c2nc(-c3ccc(-c4ccccc4)cc3)cs2)cc1OC -9.91%
CCc1cccc(C)c1NC(=O)c1cc(S(=O)(=O)N2CCOCC2)cn1C -0.557%
COc1cc(NC(=O)CCn2cnc3ccccc3c2=O)cc(OC)c1 -12.2%
CCCCSCCCNC(=O)c1cn(CC)c2ccc(S(=O)(=O)N3CCCCCC3)cc2c1=O -9.07%
COc1ccc(OCCn2c(C)nc3cc(C)c(C)cc32)cc1 -27.1%
CCCOc1ccc(C(=O)Nc2cc(-c3nc4cc(C)cc(C)c4o3)ccc2C)cc1 -13.2% [at 11.5 µM]
CN1C(=O)c2ccccc2Sc2ccc(NC(=O)N3CCN(c4ccccc4F)CC3)cc21 -16.6%
CC(C)NC(=O)C1CCN(C(=O)N2CCOc3ccc(Cl)cc32)CC1 -3.01%
Cc1cc(C)c2c(-n3cccc3)c(C(=O)NCCCN3CCCCC3C)sc2n1 (stereo unspecified) -3.37%
O=C(O)[C@H](O)[C@@H](O)[C@H](O[C@@H]1O[C@H](CO)[C@H](O)[C@H](O)[C@H]1O)[C@H](O)CO 3%
COc1cc(-c2noc(-c3cc(C(C)C)[nH]n3)n2)cc(OC)c1OC 11.7%
Cc1nn(S(=O)(=O)c2ccc(Cl)cc2)c(C)c1S(=O)(=O)N1CCCCCC1 -6.77%
CC(=O)Nc1nonc1-c1nnc(SCc2ccc(Cl)cc2)n1C -19.7%
CCOC(=O)c1c(NC(=O)c2cc(=O)c3c(C)cc(C)cc3o2)sc(C(C)=O)c1C 5.16%
Cc1cc(=O)c2cc(C(=O)Nc3ccccc3)ccc2[nH]1 18.7%
Cc1ccc2cccc(NC(=O)c3ccc(-c4ccc(Br)cc4)o3)c2n1 -4.22%
